{"source": "the supplement of paper PMC3334620", "note": "Over roughly 33,000 sequences, “E-score (-0.5 to 0.5)” has its median near -0.016; the highest 2% begin near 0.31. The list shows a part of the results."}
{"molecular_target": "Cst6 (UniProt P40535)", "assay": "PBM E-score (8-mer binding enrichment) (E-score (-0.5 to 0.5)); higher = stronger / more preferred TF binding; most listed sequences are background and not binding sites", "conditions": "protein concentration: 200 nM; construct: GST-DNA-binding domain", "method": "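Universal 'all 10-mer' protein binding microarrays (Agilent AMADID 015681) probed with GST-tagged S. cerevisiae TFs (full-length or DBD) made by in vitro transcription/translation (PURExpress), about 100-200 nM. Bound TF was detected with fluorescent anti-GST. Each ungapped 8-mer (which stands for itself and its reverse complement) is scored by the PBM enrichment score (E-score), a modified Wilcoxon-Mann-Whitney statistic from -0.5 to +0.5, computed with the Universal PBM Analysis Suite. Scale: above 0.35 generally sequence-specific binding.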"}
{"sequence": "AAATGATC", "PBM E-score": 0.0366}
{"sequence": "CGGGCTCC", "PBM E-score": -0.362}
{"sequence": "CAGGACCG", "PBM E-score": -0.29}
{"sequence": "GGCCTTAC", "PBM E-score": -0.121}
{"sequence": "CGGGCGGA", "PBM E-score": -0.163}
{"sequence": "AAAGATAA", "PBM E-score": 0.308}
{"sequence": "CTTATCAC", "PBM E-score": 0.0776}
{"sequence": "GGATGCGA", "PBM E-score": -0.196}
{"sequence": "AGGAAACT", "PBM E-score": -0.138}
{"sequence": "ACCCTATA", "PBM E-score": -0.214}
{"sequence": "ATTCCATC", "PBM E-score": 0.199}
{"sequence": "CCCAATTA", "PBM E-score": 0.0563}
{"sequence": "CCACATGA", "PBM E-score": 0.144}
{"sequence": "GAAGTGAC", "PBM E-score": 0.263}
{"sequence": "CGAAGGGC", "PBM E-score": -0.0477}
{"sequence": "CTCACGTC", "PBM E-score": 0.14}
{"sequence": "CGGGACTA", "PBM E-score": -0.284}
{"sequence": "GAAACGAA", "PBM E-score": 0.182}
{"sequence": "AAAATATG", "PBM E-score": 0.209}
{"sequence": "GCCAATTA", "PBM E-score": 0.065}
{"sequence": "ACGTTTAG", "PBM E-score": 0.126}
{"sequence": "CGTGTGTC", "PBM E-score": 0.0817}
{"sequence": "ATGCTTCG", "PBM E-score": -0.0104}
{"sequence": "ACAGGATC", "PBM E-score": -0.244}
{"sequence": "CGACTTGC", "PBM E-score": -0.0945}
{"sequence": "TACAGCTA", "PBM E-score": -0.236}
{"sequence": "CGTGAAAC", "PBM E-score": 0.179}
{"sequence": "ACAATGAT", "PBM E-score": 0.269}
{"sequence": "GTGAGGAA", "PBM E-score": -0.0605}
{"sequence": "ACGCAAAT", "PBM E-score": 0.161}
{"sequence": "TCCACGAA", "PBM E-score": 0.158}
{"sequence": "GACATTAA", "PBM E-score": 0.146}
{"sequence": "CCCCACGA", "PBM E-score": -0.209}
{"sequence": "CATGAGGA", "PBM E-score": 0.0552}
{"sequence": "AGCTCCTC", "PBM E-score": -0.0933}
{"sequence": "CCGTGCCC", "PBM E-score": -0.075}
{"sequence": "AAACGAGT", "PBM E-score": -0.0501}
{"sequence": "AACGATGC", "PBM E-score": -0.035}
{"sequence": "AGTTTCAA", "PBM E-score": -0.118}
{"sequence": "CTCAATGC", "PBM E-score": -0.0257}
{"sequence": "ATGTTGAA", "PBM E-score": 0.104}
{"sequence": "ACATTCAG", "PBM E-score": -0.219}
{"sequence": "AGCCAGTA", "PBM E-score": -0.281}
{"sequence": "AAATAAAA", "PBM E-score": 0.186}
{"sequence": "TAGATATA", "PBM E-score": 0.106}
{"sequence": "GAGGAATC", "PBM E-score": -0.167}
{"sequence": "AATACAAC", "PBM E-score": 0.164}
{"sequence": "AATAACCA", "PBM E-score": 0.226}
{"sequence": "CTTACCAC", "PBM E-score": -0.141}
{"sequence": "ATGATTAC", "PBM E-score": 0.253}
{"sequence": "ATATAAAC", "PBM E-score": 0.295}
{"sequence": "CGCACGGC", "PBM E-score": 0.375}
{"sequence": "AGTCGGCC", "PBM E-score": -0.198}
{"sequence": "GGGTTTAA", "PBM E-score": -0.0748}
{"sequence": "GTTGCGAA", "PBM E-score": 0.119}
{"sequence": "TCGGGCAA", "PBM E-score": -0.192}
{"sequence": "AGACAGCG", "PBM E-score": -0.143}
{"sequence": "GTCGGTAA", "PBM E-score": -0.045}
{"sequence": "CCCTCCCA", "PBM E-score": -0.0423}
{"sequence": "AACAAGTA", "PBM E-score": -0.0246}
{"sequence": "AACCTCTG", "PBM E-score": -0.136}
{"sequence": "TGGCGCCA", "PBM E-score": 0.034}
{"sequence": "ACTGGGTC", "PBM E-score": -0.286}
{"sequence": "GGAAAGAA", "PBM E-score": 0.116}
{"sequence": "ATGGTATA", "PBM E-score": 0.122}
{"sequence": "TGCGCCAA", "PBM E-score": -0.0304}
{"sequence": "CGGGGTCA", "PBM E-score": -0.164}
{"sequence": "CCTGGGAC", "PBM E-score": -0.245}
{"sequence": "AATTTACA", "PBM E-score": 0.229}
{"sequence": "AGTATACG", "PBM E-score": 0.0757}
{"sequence": "CCCCTTAC", "PBM E-score": -0.14}
{"sequence": "CAATAGCA", "PBM E-score": -0.216}
{"sequence": "ACTACGCC", "PBM E-score": -0.0733}
{"sequence": "ATAACATC", "PBM E-score": 0.282}
{"sequence": "GCTTACGA", "PBM E-score": 0.0634}
{"sequence": "CGTCTCAA", "PBM E-score": 0.13}
{"sequence": "AAAGAAAA", "PBM E-score": 0.16}
{"sequence": "GTAATAGA", "PBM E-score": 0.0316}
{"sequence": "ATTCTAAC", "PBM E-score": 0.0623}
{"sequence": "GTAAACAA", "PBM E-score": 0.28}
{"sequence": "CGCCATCC", "PBM E-score": 0.0971}
{"sequence": "ATGGGAAA", "PBM E-score": -0.125}
{"sequence": "CACTCCAA", "PBM E-score": -0.0548}
{"sequence": "CAAAAGTC", "PBM E-score": -0.0785}
{"sequence": "ATAGCTCC", "PBM E-score": -0.0824}
{"sequence": "GCTATACA", "PBM E-score": 0.0758}
{"sequence": "ACCATAGT", "PBM E-score": -0.116}
{"sequence": "GTGTCTTA", "PBM E-score": 0.122}
{"sequence": "AGTACGCG", "PBM E-score": 0.105}
{"sequence": "GACTCGGC", "PBM E-score": -0.177}
{"sequence": "GCGTAATA", "PBM E-score": 0.296}
{"sequence": "TATCCCCA", "PBM E-score": -0.123}
{"sequence": "GAATAGTC", "PBM E-score": -0.111}
{"sequence": "GTTCAATA", "PBM E-score": 0.00065}
{"sequence": "AAGATCCA", "PBM E-score": -0.0616}
{"sequence": "CTTTCTTA", "PBM E-score": 0.208}
{"sequence": "CTTCCGGA", "PBM E-score": -0.25}
{"sequence": "GACATTCC", "PBM E-score": -0.128}
{"sequence": "AGGCGCTA", "PBM E-score": 0.0918}
{"sequence": "CCGCCCAC", "PBM E-score": -0.0152}
{"sequence": "CACTCATG", "PBM E-score": -0.017}
{"sequence": "ACGCACAG", "PBM E-score": 0.101}
{"sequence": "CTTGCACC", "PBM E-score": -0.0331}
{"sequence": "CAAAACAA", "PBM E-score": 0.11}
{"sequence": "AGTTCATC", "PBM E-score": 0.05}
{"sequence": "AAGGATGT", "PBM E-score": -0.141}
{"sequence": "GGCGGGTA", "PBM E-score": -0.17}
{"sequence": "CACCGTTA", "PBM E-score": 0.162}
{"sequence": "AGGCTAAA", "PBM E-score": -0.0332}
{"sequence": "CCGGCAAG", "PBM E-score": -0.104}
{"sequence": "GTCTATGA", "PBM E-score": 0.26}
{"sequence": "AAATATTG", "PBM E-score": 0.286}
{"sequence": "AAGGATCC", "PBM E-score": -0.197}
{"sequence": "AATGATTA", "PBM E-score": 0.344}
{"sequence": "GGCGACAC", "PBM E-score": -0.0377}
{"sequence": "CGTCTCGA", "PBM E-score": 0.143}
{"sequence": "CGAACAGA", "PBM E-score": 0.00596}
{"sequence": "ACCGACAT", "PBM E-score": 0.111}
{"sequence": "GTCGCGAA", "PBM E-score": -0.104}
{"sequence": "ACCAAACC", "PBM E-score": 0.0174}
{"sequence": "TATCCGAA", "PBM E-score": 0.0414}
{"sequence": "CCGGGTTC", "PBM E-score": -0.142}
{"sequence": "GAGAGCCA", "PBM E-score": -0.0157}
{"sequence": "CCAGGCTC", "PBM E-score": -0.28}
{"sequence": "GCCAGGTA", "PBM E-score": -0.139}
{"sequence": "AAGATCAC", "PBM E-score": 0.145}
{"sequence": "AACGTTAC", "PBM E-score": 0.137}
{"sequence": "AACTATAC", "PBM E-score": -0.0149}
{"sequence": "GCGATGCA", "PBM E-score": -0.255}
{"sequence": "GAAGATCA", "PBM E-score": 0.0438}
{"sequence": "GGGTGACC", "PBM E-score": -0.0338}
{"sequence": "CCTGGGAG", "PBM E-score": -0.26}
{"sequence": "AAGGGCTA", "PBM E-score": -0.169}
{"sequence": "CGAGGATC", "PBM E-score": -0.0581}
{"sequence": "TCAGACAA", "PBM E-score": 0.0498}
{"sequence": "CAGATAAA", "PBM E-score": 0.051}
{"sequence": "GGGCGATA", "PBM E-score": -0.23}
{"sequence": "GTGCCCCA", "PBM E-score": -0.141}
{"sequence": "AATTTCTA", "PBM E-score": 0.198}
{"sequence": "AAACCCGG", "PBM E-score": -0.209}
{"sequence": "ATTGGATG", "PBM E-score": 0.193}
{"sequence": "AGGTCTTC", "PBM E-score": -0.231}
{"sequence": "GATCTTTA", "PBM E-score": 0.227}
{"sequence": "GACCACCA", "PBM E-score": -0.112}
{"sequence": "AATGGAGT", "PBM E-score": -0.0477}
{"sequence": "ACCTAGCT", "PBM E-score": -0.227}
{"sequence": "AAAATCAT", "PBM E-score": 0.254}
{"sequence": "ATGTCCTG", "PBM E-score": -0.00863}
{"sequence": "CGTGTACC", "PBM E-score": -0.0152}
{"sequence": "CACATACG", "PBM E-score": 0.0445}
{"sequence": "CAGTTGGC", "PBM E-score": -0.175}
{"sequence": "ACGCGATA", "PBM E-score": 0.0231}
{"sequence": "GGCCATTA", "PBM E-score": -0.0134}
{"sequence": "ATTCTGGA", "PBM E-score": 0.122}
{"sequence": "CGAGGAAC", "PBM E-score": -0.0452}
{"sequence": "AGAAATGC", "PBM E-score": 0.0927}
{"sequence": "ACTATTAA", "PBM E-score": 0.237}
{"sequence": "AAGCAGCA", "PBM E-score": -0.247}
{"sequence": "ATTAGTCA", "PBM E-score": 0.201}
{"sequence": "AATATCGG", "PBM E-score": 0.0281}
{"sequence": "GTTGCCAA", "PBM E-score": -0.101}
{"sequence": "CGGTCTGA", "PBM E-score": -0.128}
{"sequence": "AATCGCAG", "PBM E-score": 0.0466}
{"sequence": "ACTATACT", "PBM E-score": 0.0328}
{"sequence": "TTCCCCAA", "PBM E-score": -0.12}
{"sequence": "CAAGTTAA", "PBM E-score": 0.153}
{"sequence": "GCCATTTA", "PBM E-score": 0.022}
{"sequence": "CAGCATCA", "PBM E-score": 0.0951}
{"sequence": "TATTTTGA", "PBM E-score": 0.0413}
{"sequence": "CAAAGGCA", "PBM E-score": 0.0899}
{"sequence": "TCGTCCAA", "PBM E-score": 0.023}
{"sequence": "ATGGGAAT", "PBM E-score": -0.107}
